# Reference: patent US20210290727A1 (UNIVERSITY OF MARYLAND BALTIMORE, published 2021)
# B1: HA-GST-Rheb Q64L variant (enzyme)
# chain: not shown
# notes: also called GTP mimetic; not shown: HA tag and GST tag
# Target: T1, tdTomato-CIB2 (mouse, UniProt Q9Z309 1-187)
# T1 construct: Expressed in HEK293 cells; used as lysate in co-IP; also called tdTomato tagged CIB2; tdTomato-C1-mCIB2; not shown: tdTomato tag (ptdTomato Vector-C1)
# T1 sequence: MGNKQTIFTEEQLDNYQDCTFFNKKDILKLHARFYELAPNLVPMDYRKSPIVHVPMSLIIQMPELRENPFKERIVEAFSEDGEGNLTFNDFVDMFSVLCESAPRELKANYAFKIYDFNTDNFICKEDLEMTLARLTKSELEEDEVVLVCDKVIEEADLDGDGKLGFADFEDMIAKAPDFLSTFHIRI
# Experiment: co-IP from HEK293 lysates, immunoblot
binder,measurement,value
B1,binding result,binds
